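A five-concentration, 48-hour dose response in 96-well plates underlies each endpoint, interpolated linearly between surrounding concentrations. GI50 is the concentration that inhibits growth by half.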 Activity calls are given as the source filed them. Rule as the data show it: active = GI50 up to about 1.1 µM and inactive = higher.
system: NCI-H322M; test: growth of human tumour cells (NCI), 48 h

| Compound | GI50 |
| --- | --- |
| N/N=c1\c2ccccc2c2ccc3c4ccccc4/c(=N\N)c3c12 | inactive: > 100 µM |
| c1ccc(CCCNc2nnnc3ccccc23)cc1 | inactive: > 100 µM |
| O=C(COC(=O)c1ccccc1)c1ccc(Br)cc1 | inactive: 13.1 µM |
| C[C@]1(O)CC[C@H]2[C@@H]3CCc4cc(O)ccc4[C@H]3CC[C@@]21C | inactive: 1.95 µM |
| COc1cc2c(c(OC)c1OC)-c1ccc(SC)c(=O)cc1C(NC=O)CC2 (stereo unspecified) | active: < 0.01 µM |
| COC1=CC(=O)C(C2CC(=O)c3c(O)cc(O)cc3O2)=CC1=O (stereo unspecified) | inactive: 42.9 µM |
| O=C(O)CSCCc1ccccc1 | inactive: > 100 µM |
| Oc1ccc2ccccc2c1OCc1nnc(CCCCCCCCc2nnc(COc3c(O)ccc4ccccc34)n2Nc2ccccc2)n1Nc1ccccc1 | inactive: 28.4 µM |
| CO[C@]12C[C@H](CNC(=O)c3ccc[nH]3)O[C@H]1NC(=O)N2 | inactive: > 100 µM |
| Cc1nn2c3c(nnc2c1C#N)C(=O)NN=C(N)S3 | inactive: > 100 µM |
| CN(C)CCCNC(=O)c1cc(NC(=O)c2cc(NS(=O)(=O)c3ccc4c(c3)C(=O)c3ccccc3C4=O)cn2C)cn1C | inactive: > 100 µM |
| Clc1ccc(/C=C/c2nc3ccccc3s2)cc1Cl | inactive: > 100 µM |
| COc1ccc(-n2cnc3c(NC(Cc4ccccc4)C(=O)O)ncnc32)cc1 (stereo unspecified) | inactive: 87.9 µM |
| O=C(O)CCc1nc2c(n1-c1ccccc1)C(=O)c1ccccc1C2=O | inactive: > 100 µM |
| BrCc1ccc2ccc3ccc(CBr)nc3c2n1 | inactive: 9.79 µM |
| O=C(O)CN1CCN2CCCCCN(CC1)CCN(CC(=O)O)CC2 | inactive: > 100 µM |
| FC(F)(F)c1nc(-c2ccccc2Cl)[nH]c1C(F)(F)F | active: 0.881 µM |
| CCCCCC(C)C[C@H]1CO[C@H](c2ccc[nH]2)N[C@H]1C(=O)OC (stereo partly specified) | inactive: > 100 µM |
| Cc1cn([C@@H]2C[C@H]2CO)c(=O)[nH]c1=O | inactive: > 100 µM |
| COc1ccc2c(c1OC)OC[C@@H](C1=CC(=O)C=C(O)C1=O)C2 | inactive: 16.4 µM |
| N#CCC(=O)N/N=C(\CCN1CCCC1)CC(c1ccccc1)c1c(O)c2ccccc2oc1=O (stereo unspecified) | inactive: > 100 µM |
| OCCCCn1cc(Cn2ncc3c(NCc4ccccc4)ncnc32)nn1 | inactive: > 100 µM |
| CCOC(=O)c1cc2c([nH]1)c(O)cc1c2ccn1Cc1ccccc1 | inactive: 20.7 µM |

| Compound | GI50 |
| --- | --- |
| O=CC1OC(=O)c2cc(O)c(O)c(O)c2-c2c(cc(O)c(O)c2O)C(=O)OC1C(O)C(O)CO (stereo unspecified) | inactive: 35 µM |
| CN(C)CCNC(=O)c1cccc2c(Nc3ccc(S(N)(=O)=O)cc3)c3ccccc3nc12 | inactive: 1.66 µM |
| c1ccc(/C(=N/Nc2nc3ccccc3s2)C2CCCCC2)nc1 | inactive: 5.86 µM |
| CCOC(=O)c1cc2c(OC)cc(OC)cc2oc1=O | inactive: > 100 µM |
| COc1ccc(-c2nc(-c3cnccn3)n(C/C=C/c3ccccc3)n2)cc1 | inactive: > 100 µM |
| O=[N+]([O-])C1CC/C(=N/O)c2nonc21 (stereo unspecified) | inactive: > 10 µM |
| COc1ccccc1NS(=O)(=O)c1ccc2ncn(NS(=O)(=O)c3ccc(Cl)cc3)c(=O)c2c1 | inactive: > 100 µM |
| CCc1nc(N)c2nc(-c3cccs3)oc2n1 | inactive: > 100 µM |
| COC(=O)NC(Nc1ccccn1)(C(F)(F)F)C(F)(F)F | inactive: > 100 µM |
| COC(=O)/C(C)=N/N=C(\S)SC | inactive: 70.1 µM |
| N#Cc1[nH]c(=S)[nH]c1N | inactive: > 100 µM |
| CC(=O)Nc1ccc2c(C(=O)O)c(C)c(O)nc2n1 | inactive: > 100 µM |
| CNC(=O)CN(CC(N)=O)C(=O)NC | inactive: > 100 µM |
| CC1(C)C2CCC1(C)[C@H](O)[C@H]2Nc1cc(C(F)(F)F)cc(C(F)(F)F)c1 (stereo partly specified) | inactive: 5.6 µM |
| CCn1c2ccccc2c2ccc3c(c21)C(=O)c1ccccc1C3=O | inactive: > 100 µM |
| CN(C)c1ccc(C=C2C(=O)OC(C)(C)OC2=O)cc1Br | inactive: > 100 µM |
| CCC(C(=O)c1cccs1)C(O)(C(F)(F)F)C(F)(F)F (stereo unspecified) | inactive: > 100 µM |
| C/C(=C/CC[C@]1(CO)CC[C@]2(C)[C@H](CC[C@@H]3[C@@]4(C)CC[C@H](OC5OC(CO)C(O)C(O)C5OC5OC(CO)C(O)C(O)C5O)C(C)(C)[C@@H]4CC[C@]32C)[C@H]1O)CO (stereo partly specified) | inactive: > 100 µM |
| Cc1cc(S(=O)(=O)NC(=C(C#N)C#N)[n+]2ccc(N(C)C)cc2)c([S-])cc1Cl | inactive: > 100 µM |
| Cc1cc(-c2nc3cc(F)ccc3s2)ccc1NC(=O)[C@@H](N)CCCCN | inactive: 1.76 µM |
| CCCCn1c(-c2ccc([N+](=O)[O-])cc2)cs/c1=N/N=C1\C(=O)Nc2ccc(Br)cc21 | inactive: 29.1 µM |
| CCOC(=O)C(C)(Cc1ccc(O)cn1)NC(=O)c1ccccc1 (stereo unspecified) | inactive: > 100 µM |
| COc1cc2c(c(OC3OC(CO)C(O)C(O)C3O)c1)C(=O)CC(c1ccc(O)cc1)O2 (stereo unspecified) | inactive: > 100 µM |

| Compound | GI50 |
| --- | --- |
| O[C@H]1[C@H]2[C@H](O)C[C@H](CCOCc3ccccc3)CN2C[C@H]1O | inactive: > 100 µM |
| CC1(C)C(=O)CCC(=O)C(C)(C)C2=CC=C(O2)C(C)(C)C(=O)CCC(=O)C(C)(C)C2=CC=C1O2 | inactive: > 100 µM |
| NNC(=O)N/N=C1\CN(c2ccc(Cl)cc2Cl)C(=O)C(=O)C1c1nc2ccccc2o1 (stereo unspecified) | inactive: > 100 µM |
| CC1(C)C2CC(=O)C1(C)C(OCc1ccccc1)C2 (stereo unspecified) | inactive: > 100 µM |
| CC(C)=NNC1=NC(C)(C)P(=O)(NNc2ncccn2)S1 (stereo unspecified) | inactive: > 100 µM |
| NC1=NN(c2ccccc2)C(=O)C1/C(=N\NC(=O)c1cc2ccccc2cc1O)C(=O)Nc1cccc(C(F)(F)F)c1 (stereo unspecified) | inactive: 44.5 µM |
| CCN(c1ccccc1)[C@H]1C(=O)N(c2ccc([N+](=O)[O-])cc2)[C@H]1c1ccc(OC)cc1 | inactive: 95.7 µM |
| O=C1CC(c2ccsc2)n2cccc21 (stereo unspecified) | inactive: > 100 µM |
| c1ccc2c3c([nH]c2c1)C1(CCCCC1)c1c([nH]c2ccccc12)C31CCCCC1 | inactive: 25.1 µM |
| COC(=O)[C@H](Cc1ccccc1)NC(=O)OCC1OC(n2cc(C)c(=O)[nH]c2=O)CC1N=[N+]=[N-] (stereo partly specified) | inactive: > 100 µM |
| C=CCC(CNC(=O)OCc1ccccc1)OC(=O)OCc1ccccc1 (stereo unspecified) | inactive: > 100 µM |
| O=[N+]([O-])c1sc2ccc(Cl)cc2c1Nc1ccc(Cl)cc1 | inactive: > 100 µM |
| CCOP(=O)(O)C(C)(C)NC | inactive: > 100 µM |
| COC1CC(OC2C(C)OC(OC3C(C)OC(OC4C(O)CC(O[C@H]5CC[C@@]6(C)C(=CC[C@]7(O)[C@@H]6C[C@@H](OC(C)=O)[C@@]6(C)[C@]7(O)CC[C@@]6(O)C(C)=O)C5)OC4C)CC3OC)CC2OC)OC(C)C1O (stereo partly specified) | inactive: > 12.5 µM |
| O=C(Nc1nc2ncn(CCO)c2c(=O)[nH]1)c1ccccc1 | inactive: > 100 µM |
| COP(=O)(OC)C(O)/C=C(\Cl)c1ccc(Cl)cc1 (stereo unspecified) | inactive: > 100 µM |
| CCCCN1C(=O)CC2[C@@H]3CCc4cc(OC)ccc4C3CC[C@]2(C)C1=O (stereo partly specified) | inactive: > 10 µM |
| CCN(CCCN(CC)C(=O)N[C@@H](Cc1ccccc1)C(=O)NC)C(=O)N[C@@H](Cc1ccccc1)C(=O)NC | inactive: > 100 µM |
| Oc1ccc(SCc2cc(O)c(O)c(O)c2)cc1 | inactive: 16.1 µM |
| COc1cc(C(=O)NC(CCN)(c2ccccc2)c2ccccc2)cc(OC)c1OC | inactive: 88.3 µM |
| O=C1C(=O)N(c2ccc(Cl)cc2)C(=O)C(=O)C1c1nc2ccccc2s1 | inactive: > 100 µM |
| O=c1n(N=[S+]([O-])(c2ccccc2)c2ccccc2)c(=O)n2n1C1C=CC2CC1 | inactive: > 100 µM |
| O=c1/c(=C/c2ccccc2O)sc2nc3ccccc3n12 | inactive: 76.6 µM |

| Compound | GI50 |
| --- | --- |
| CC(=O)Oc1ccc2c(c1)c1c(=O)oc(C)nc1n2Cc1ccccc1 | inactive: 51.2 µM |
| CN(C)C(=O)N1N[C@H](c2ccccc2)[C@@H]1c1ccccc1 | inactive: > 100 µM |
| C1CSCCSCCSCCSC1 | inactive: > 100 µM |
| COC(=O)c1cc2c(=O)n(C)c3ccccc3n2c1C(=O)OC | inactive: 88.3 µM |
| CCOC(=O)CCC1(C(=O)OCC)CCCC1=O (stereo unspecified) | inactive: > 100 µM |
| O=C1CSC(c2ccccc2O)N1c1ccc2c(c1)Oc1c(Cl)c3c(c(Cl)c1=N2)Oc1cc(N2C(=O)CSC2c2ccccc2O)ccc1N=3 (stereo unspecified) | inactive: 67.1 µM |
| Cc1ccc(Nc2nc3[nH]ccc3c(=O)[nH]2)cc1 | inactive: 58.1 µM |
| [N-]=[N+]=NC1C(O)C(CO)OC1n1cnc2c(N)ncnc21 (stereo unspecified) | inactive: 90.4 µM |
| CCCCOC(C)(C)/C=C/C(O)[C@](C)(O)[C@H]1[C@H](O)C[C@@]2(C)[C@@H]3CCc4c(cc(OC5OC(CO)C(O)C(O)C5O)c(O)c4C)C3(C)C(=O)C[C@]12C (stereo partly specified) | inactive: > 100 µM |
| O=C1CC[N+]2=Cc3ccccc3O[B-]2(c2ccccc2)O1 (stereo unspecified) | inactive: > 100 µM |
| CC1(O)C(=O)OC2CC([C@]3(O)CCC4[C@@H]5C[C@H]6O[C@]67[C@@H](O)C=CC(=O)[C@]7(C)C5CC[C@@]43C)C1(C)C2 (stereo partly specified) | inactive: 50.6 µM |
| CC1CCC2(NC1)OC1CC3[C@@H]4CC=C5C=CCC[C@]5(C)C4CC[C@]3(C)C1C2C (stereo partly specified) | inactive: 22.9 µM |
| CON(C)C(=O)C(Cc1ccccc1)NC(=O)OC(C)(C)C (stereo unspecified) | inactive: > 100 µM |
| C=C1C(=O)O[C@H](c2ccoc2)C[C@@H]1[C@@]1(C)CCCC2(C)C(=O)OCC21 (stereo partly specified) | inactive: > 100 µM |
| Cc1cc(-c2nc3cc(F)ccc3s2)ccc1N | inactive: 12.2 µM |
| O=S(=O)(N/C(=N\O)Nc1ccc(Cl)cc1)c1cc2ccccc2o1 | inactive: 24.5 µM |
| Cc1cc2c(=O)n(-c3ccc(F)cc3)c(C)nc2c(C(=O)O)c1C | inactive: > 100 µM |
| CN(C)/C=C/c1c2c(nc3ccccc13)C(=O)c1ccccc1C2=O | inactive: 2.04 µM |
| O=C(Nc1ccn(C2CCC(COC(c3ccccc3)(c3ccccc3)c3ccccc3)O2)c(=O)n1)c1ccccc1 (stereo unspecified) | inactive: > 10 µM |
| COc1ccc(Nc2nc(N)c(C(=O)c3ccccc3)s2)cc1 | active: 0.46 µM |
| CCCC(=O)Oc1cc(OC(=O)CCC)c2c(C)cc(=O)oc2c1 | inactive: 57 µM |
| Oc1cc(-c2ccc(Cl)cc2)nc2ncccc12 | inactive: 67.3 µM |

Reference: ChEMBL document CHEMBL1201862, “PubChem BioAssay data set” (2004)
